Test results published in patent US20250295801A1, “CD25 ANTIBODIES, ANTIBODY DRUG CONJUGATES, AND USES THEREOF” (Seagen Inc., priority 2024, published 2025).

Legend:
[1] = tested on: CD25-expressing L540cy tumor cells; assay: NK cell mediated antibody-dependent cellular cytotoxicity (ADCC); assay type: cell-based; conditions: human NK cells, L540cy target cells, 4 hours
Experimental: NK cell mediated antibody dependent cellular cytotoxicity (ADCC) was examined in both fucosylated and non-fucosylated antibody forms. Human NK cells (158 V/V) were purified from a single human PBMC donor (Astarte) using an EasySep Human NK cell enrichment kit ([…] Technologies) according to the manufacturer's instructions. Antibodies were incubated with human NK cells and CD25-expressing L540cy tumor cells for 4 hours, at which time cell-mediated cytotoxicity was assessed using a CytoTox 96 Non-Radioactive Cytotoxicity Assay (Promega) according to manufacturer's instructions.

Tregs in human PBMCs = assay: Treg depletion from peripheral blood mononuclear cells; assay type: cell-based; conditions: 24 hours; FIG. 2B, 12
Experimental: Frozen human PBMCs (Astarte) were thawed and plated at a density of 400,000 cells per well. 5-fold dilutions of antibodies were added and incubated at 37° C. for 24 hours. Samples were run by flow cytometry and Tregs were gated by labeling CD3+/CD4+/CD25+ and CD127low/neg. The extent of depletion was determined by comparison to an untreated sample.

CD25 expressing cells = assay: Internalization into CD25 expressing cells; assay type: cell-based, human; conditions: FIG. 1E
[2] = tested on: human CD25 transgenic mice; assay: In vivo T cell depletion in human CD25 transgenic mice (spleen, flow cytometry); parameters: species or system mouse; conditions: non-fucosylated antibody, 0.1 mg/kg intravenous; for depletion of splenic CD4 cells: 72 hours, FIG. 14A
Experimental: At 72 or 168 hours post-dose, the mice were sacrificed and the spleens harvested for flow cytometry analysis of T cell populations.

recombinant human CD25 [3] = target: T1, recombinant human CD25 (Homo sapiens, UniProt P01589); assay: Kinetic binding assay (ForteBio Octet RED384) on biotinylated recombinant human CD25; conditions: for kinetic binding to recombinant human CD25 (binding curves): FIG. 6A, 6B; for ka: association 300 seconds; for kd: disassociation 900 seconds
T1 construct: biotin (biotinylated); purchased Acro Biosystems
T1 sequence (P01589 22-272): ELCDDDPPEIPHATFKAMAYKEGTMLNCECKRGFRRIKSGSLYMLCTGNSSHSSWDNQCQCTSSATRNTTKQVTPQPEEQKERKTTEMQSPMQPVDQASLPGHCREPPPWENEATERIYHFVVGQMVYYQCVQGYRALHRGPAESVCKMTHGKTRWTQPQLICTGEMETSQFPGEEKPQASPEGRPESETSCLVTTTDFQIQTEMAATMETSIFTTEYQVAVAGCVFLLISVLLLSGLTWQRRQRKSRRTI
Experimental: Biotinylated recombinant human CD25 was obtained from Acro Biosystems. Biotinylated hCD25 protein was loaded on SAX (High sensitivity streptavidin) tips at 0.8 nM loading density. Affinity measurements were run using a ForteBio Octet RED384 instrument in the kinetic buffer comprising 1×PBS, 0.1% BSA, 0.02% Tween20, pH 7.4. Association measurements were performed for 300 seconds and disassociation measurements were performed for 900 seconds. Each curve was reference subtracted and modeled using a 1:1 global fit. KD results are reported as ka divided by kd.

recombinant cyno CD25 = assay: Saturation binding analysis by ELISA; parameters: species or system cynomolgus; conditions: compared with human CD25, FIG. 1A, 1B, 7
Experimental: (§1) Saturation binding ELISA experiments were performed using soluble recombinant antigens, which were diluted to an appropriate concentration in 50 mM carbonate buffer, pH 9.6. To each well of a 96- or 384-well Maxisorb ELISA plate was added 100 μL of soluble antigen. The plate was sealed and stored at 4° C. overnight. The plate was then washed 3-5 times with PBS-T was buffer (PBS, pH 7.4+0.05% Tween-20). The wells were blocked using 300 μL/well of PBS-T buffer containing BSA for 1 hour at room temperature, then washed 3-5 times with PBS-T. Dilutions of antibodies were prepared in blocking buffer and added to each well in a volume of 100 μL. The antibodies were incubated for 1 hour at room temperature, and then washed 3-5 times with PBS-T. HRP-conjugated secondary antibodies (anti-human Fc) were then added and incubated for 1 hour at room temperature. The plate was washed 3-5 times with PBS-T. The ELISA was developed by adding 100 μL of TMB solution and incubating for 3-15 min at room temperature. To stop the reaction, 100 μL of 1 N sulfuric acid was added to each well. The absorbance at 450 nm was determined using a Spectramax 190 plate reader ([…]) and the data plotted using GraphPad Prism 6.
(§2) Saturation binding analysis of CD25 antibody SG25Ab-9 and detuned CD25 antibody SG25Ab-9 YH98A on recombinant human and cyno CD25 was assessed by ELISA.

recombinant human CD25 [4] = target: T2, recombinant human CD25 (Homo sapiens, UniProt P01589); assay: Saturation binding analysis by ELISA; conditions: FIG. 7, 8A, 8B
T2 sequence (P01589 22-240 limits assumed): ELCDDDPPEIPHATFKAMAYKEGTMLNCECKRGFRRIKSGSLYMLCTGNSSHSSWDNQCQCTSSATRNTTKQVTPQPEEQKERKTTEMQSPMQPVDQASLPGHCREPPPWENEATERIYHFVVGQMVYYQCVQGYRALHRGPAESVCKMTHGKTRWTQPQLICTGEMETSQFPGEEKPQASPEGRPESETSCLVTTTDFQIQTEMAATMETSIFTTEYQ
Experimental: as §1, with “The plate was washed 3-5 times with PBS-T. The ELISA was developed by adding 100 μL of TMB solution and incubating for 3-15 min at room temperature. To stop the reaction, 100 μL of 1 N sulfuric acid was added to each well.” left out
as §2
Saturation binding analysis of CD25 antibody SG25Ab-9 and 15 CD25 antibody SG25Ab-9 variants on recombinant human CD25 was assessed by ELISA.

L82 xenograft = assay: In vivo efficacy in cell line xenograft model; parameters: species or system NSG mice; conditions: FIG. 4B, FIG. 11A at 1.2 mg/kg
Experimental: The in vivo efficacy of CD25 ADCs was evaluated in three xenograft models that express CD25 (DEL, L82, L540cy) in either SCID (DEL, L540cy) or NSG mice (L82). To conduct the efficacy experiments, 5×10^6 cells were injected subcutaneously into 5 female mice per group. Mice were randomly divided to study groups and dosed with test article via intraperitoneal injection once the tumors reached approximately 100 mm^3. For the L82 model in NSG mice, all mice were pre-treated with 10 mg/kg human IVIG 24 hours prior to treatment. Animals were euthanized when tumor volumes reach 800-1000 mm^3. Tumor volume was calculated with the formula (volume=1/2×length×width×width). Mice showing durable regressions were terminated around day 60.

B1: SG25Ab-9: fully human anti-CD25 IgG1 antibody; VH SEQ ID NO: 7, VL SEQ ID NO: 8, HC SEQ ID NO: 45, LC SEQ ID NO: 47 (antibody)
heavy: QVQLVQSGAEVKKPGESLKISCKGSGYSSTSYWIGWVRQMPGKGLEWMGIIYPGDSDTRYSPSFQGQVTISADKSISTAYLQWSSLKASDTAMYYCARLGSYYAFDIWGRGTMVTVSS[human IgG1 constant region left out here]
light: QSALTQPASVSASPGQSITISCTGTSSDVGAYIYVSWYQQLSGKPPKLILYDVSKRPSGISDRFSGSKSGNTASLTISGLQADDEADYYCSSYTRSSTWVFGGGTQLTVLGQPKAAPSVTLFPPSSEELQANKATLVCLISDFYPGAVTVAWKADSSPVKAGVETTTPSKQSNNKYAASSYLSLTPEQWKSHRSYSCQVTHEGSTVEKTVAPTECS
For B1, the “NK-mediated ADCC activity” value [1] was “robust NK-mediated ADCC activity”, the “Treg depletion from PBMC” value (Tregs in human PBMCs) was “readily depleted Tregs” and the “internalization into CD25 expressing cells” value (CD25 expressing cells) was “efficiently internalized into CD25 expressing cells”. For the same molecule, the “depletion of splenic CD4 cells” value [2] was “neither antibody depleted splenic CD4 cells”, the “kinetic binding to recombinant human CD25 (binding curves)” value (“kinetic binding” below) (recombinant human CD25 [3]) was “efficient CD25 binding” and the ka (recombinant human CD25 [3]) was 210000 M⁻¹ s⁻¹. It also gave a kd (recombinant human CD25 [3]) of 2.7e-05 s⁻¹.

B2: YH99A: SG25Ab-9 variant with point mutation in heavy chain CDR residue (antibody)
heavy: QVQLVQSGAEVKKPGESLKISCKGSGYSSTSYWIGWVRQMPGKGLEWMGIIYPGDSDTRYSPSFQGQVTISADKSISTAYLQWSSLKASDTAMYYCARLGSYAAFDIWGRGTMVTVSS[human IgG1 constant region left out here]
light: QSALTQPASVSASPGQSITISCTGTSSDVGAYIYVSWYQQLSGKPPKLILYDVSKRPSGISDRFSGSKSGNTASLTISGLQADDEADYYCSSYTRSSTWVFGGGTQLTVLGQPKAAPSVTLFPPSSEELQANKATLVCLISDFYPGAVTVAWKADSSPVKAGVETTTPSKQSNNKYAASSYLSLTPEQWKSHRSYSCQVTHEGSTVEKTVAPTECS
B2 was tested, and the ka (recombinant human CD25 [3]) was 390000 M⁻¹ s⁻¹ and the kd (recombinant human CD25 [3]) was 0.0085 s⁻¹.

B3: SG25Ab-9 YH98A (antibody)
heavy: QVQLVQSGAEVKKPGESLKISCKGSGYSSTSYWIGWVRQMPGKGLEWMGIIYPGDSDTRYSPSFQGQVTISADKSISTAYLQWSSLKASDTAMYYCARLGSAYAFDIWGRGTMVTVSS[human IgG1 constant region left out here]
light: QSALTQPASVSASPGQSITISCTGTSSDVGAYIYVSWYQQLSGKPPKLILYDVSKRPSGISDRFSGSKSGNTASLTISGLQADDEADYYCSSYTRSSTWVFGGGTQLTVLGQPKAAPSVTLFPPSSEELQANKATLVCLISDFYPGAVTVAWKADSSPVKAGVETTTPSKQSNNKYAASSYLSLTPEQWKSHRSYSCQVTHEGSTVEKTVAPTECS
With B3 the “NK-mediated ADCC activity” value [1] was “reduced ADCC activity towards CD25-expressing L540cy cancer cells compared to CD25 antibody SG25Ab-9”, the “binding to recombinant cynomolgus CD25” value (recombinant cyno CD25) was “decrease in affinity to both human and cyno CD25” and the “Treg depletion from PBMC” value (Tregs in human PBMCs) was “reduced Treg depleting activity in vitro”. For the same molecule, the “binding affinity to recombinant human CD25” value (recombinant human CD25 [4]) was “decrease in affinity to both human and cyno CD25”, the “in vivo anti-tumor activity” value (L82 xenograft) was “retained in vivo activity comparable to SG25Ab-9” and the “depletion of human CD25 expressing mouse CD4 cells and Treg cells” value ([2]; 72 hours after administration, FIG. 14B) was “reduced depletion of human CD25 expressing mouse CD4 cells and human CD25 expressing mouse Treg cells than CD25 antibody SG25Ab-9”. For the same molecule, the “depletion of splenic CD4 cells” value [2] was “neither antibody depleted splenic CD4 cells”, the “kinetic binding” value (recombinant human CD25 [3]) was “faster off rate” and the “kinetic binding” value (recombinant human CD25 [3]; listed as YH98 Å) was “reduced binding affinity to CD25”. For the same molecule, the ka (recombinant human CD25 [3]) was 310000 M⁻¹ s⁻¹ and the kd (recombinant human CD25 [3]) was 0.0043 s⁻¹.
